The record followed here is patent US8263079B2, “Antibodies against CSF-1R” (ImClone, LLC, priority 2010, dated 2012).

Read-outs that look alike come from different tables or passages of the source.

Test [1] concerns monocytes. As to the kind of experiment: Macrophage differentiation by CSF-1. The format is cell-based. Here is the method: Seed monocytes (Lonza) at a density of 4×10^5 cells/mL in each chamber of an 8-chamber slide in 900 μL Roswell Park Memorial Institute (RPMI) 1640 media containing 10% FBS and 100 ng/mL hCSF-1. […] Incubate at 37° C., changing media every three days until monocytes are visibly seen to adhere to the plate and elongate, which is characteristic of macrophage differentiation.

Test [2] deals with NKM-1 leukemia cells. The experiment in a line: Survival of NKM-1 human leukemia-bearing mice. The format is in vivo, mouse. To be noted: Human IgG control 35 days, P<0.0001. Here is the method:
Irradiate Nu/nu mice sublethally with 200 rads/mouse 24 hours before intravenous injection with 2.5×10^6 NKM-1 leukemia cells. […] Monitor mice daily for survival. Determine P values by log rank Mantel Cox test.

Test [3] deals with NKM-1 human leukemia cells. As to the kind of experiment: Antibody-dependent cell-mediated cytotoxicity (ADCC) with human NK cells. To be noted: antibody concentration 1 μg/mL, 4 hours. Type of test: cell-based. As to the method:
NKM-1 human leukemia cells are seeded at 2×10^5 cells/mL in 25 μL RPMI media containing 10% Ultra-Low IgG FBS and 3 ng/mL of human IL-2 in a 96 well plate. […] After a 15 minute incubation, seed 25 μL of 3×10^6 cells/mL human NK cells (Lonza) and incubate for an additional four hours at 37° C. Add 10 μL of Lysis Buffer from aCella-TOX kit (Cell Technology) and bring to RT for 15 minutes. Add 125 μL of low IgG FBS and centrifuge plates for 1 minute at 750×g. In Optiplates (Perkin Elmer), add 50 μL Enzyme Assay Diluent from aCella-TOX kit and carefully transfer 50 μL of cell supernatant to Optiplates. Prepare enzyme assay reagent and detection reagent according to kit instructions, adding 100 μL enzyme assay reagent immediately followed by 50 μL of detection reagent to Optiplates. Read plates in luminometer 20 minutes after reagents are added.

Test [4] deals with NKM-1 leukemia cells. The experiment in a line: Proliferation assay for tumor cell line with CSF-1. Type of test: cell-based, human. To be noted: 20 ng/mL CSF-1, 3 days. Here is the method: Seed NKM-1 leukemia cells at 1×10^4 cells/mL in 100 μL RPMI 1640 media containing 1% FBS in a 96 well plate overnight. […] Incubate for an additional 3 days at 37° C. Upon addition of 100 μL of CellTiter Glo Luminecent buffer and substrate (Promega), shake cells for 10 minutes before reading luminescence (as an indicator of viability).

The subject of another test is Akt and MAPK. As to the kind of experiment: Phosphorylation of downstream Akt and MAPK by Western blot in NIH3T3 cells stably transfected with CSF-1R. Type of test: cell-based. To be noted: cells incubated with 100 nM to 1 nM antibody; CSF-1 or IL-34 pathway. As to the method: Seed NIH3T3 cells stably transfected with CSF-1R cells in a 12-well plate at a density of 5×10^5 cells/well in 1 mL well of Dulbecco's Modified Eagles Medium (DMEM) containing 10% fetal bovine serum (FBS) and 1 mg/mL geneticin for 5 hours. Wash monolayers twice in PBS and culture overnight in 0.9 mL/well DMEM with 1% FBS. […] Stimulate cells with 100 ng/mL CSF-1 or IL-34 ligand for 10 minutes and then place on ice and wash with ice-cold PBS. Lyse the cells in 100 μL of 50 mM Hepes (pH 7.5 150 mM NaCl, 0.5% Triton X-100, 1 mM Na3VO4, 10 mM NaPPi, 50 mM NaF) and tablet of protease inhibitors (Roche) on ice for 10 minutes. Clarify the lysed cells by centrifugation at 4° C. Load 20 μL lysate on a denaturing electrophoresis gel and blot onto a nitrocellulose membrane. Detect tyrosine-phosphorylated CSF-1R on the blot by using an anti-phosphoCSF-1R antibody at 1 μg/mL (Cell Signaling). Determine CSF-1R signaling by probing the blot with either anti-phospho-MAPK (1:500 dilution) or anti-phopho-Akt (1:1000) (Cell Signaling). To insure equal loading of the lanes, probe blots with anti-CSF-1R antibodies (1 μg/mL; R&D Systems) or anti-actin antibodies (1:2000; Sigma). Incubate all primary antibodies with rocking for 1 hour at RT; followed by the corresponding secondary antibody conjugated with HRP, also with rocking for 1 hour at RT. Visualize bands with a chemiluminescence reagent (GE Healthcare).

Test [5] concerns monocytes. As to the kind of experiment: Macrophage differentiation by IL-34. The format is cell-based. Here is the method: Seed monocytes (Lonza) at a density of 4×10^5 cells/mL in each chamber of an 8-chamber slide in 900 μL Roswell Park Memorial Institute (RPMI) 1640 media containing 10% FBS and 100 ng/mL hIL-34. […] Incubate at 37° C., changing media every three days until monocytes are visibly seen to adhere to the plate and elongate, which is characteristic of macrophage differentiation.

Test [6] deals with monocytes. As to the kind of experiment: Monocyte proliferation by CSF-1 (CellTiter Glo). Type of test: cell-based. The note with it: 100 ng/mL CSF-1. As to the method: Seed monocytes (Lonza) at a density of 3000 cells/well in a 96-well plate in the presence of RPMI 1640 media containing 10% FBS and 100 ng/mL CSF-1. […] Exchange media for fresh media containing 10% FBS, 100 ng/mL CSF-1, and antibody three days later and allow cells to grow an additional 5 days. Upon addition of 100 μL of CellTiter Glo Luminescent buffer and substrate (Promega), shake cells for 10 minutes and read luminescence as an indicator of viability.

Test [7] relates to monocytes. As to the kind of experiment: Monocyte proliferation by IL-34 (CellTiter Glo). The format is cell-based. The note with it: read-out: IC50 inhibiting 50% of monocyte growth; 100 ng/mL IL-34. As to the method: Seed monocytes (Lonza) at a density of 3000 cells/well in a 96-well plate in the presence of RPMI 1640 media containing 10% FBS and 100 ng/mL IL-34. […] Exchange media for fresh media containing 10% FBS, 100 ng/mL IL-34, and antibody three days later and allow cells to grow an additional 5 days. Upon addition of 100 μL of CellTiter Glo Luminecent buffer and substrate (Promega), shake cells for 10 minutes and read luminescence as an indicator of viability.

B1: Antibody 1: fully human IgG1 antibody recognizing human CSF-1R; heavy chain SEQ ID NO:9, light chain SEQ ID NO:10 (antibody)
heavy: QDQLVESGGGVVQPGRSLRLSCAASGFTFSSYGMHWVRQAPGEGLEWVAVIWYDGSNKYYADSVKGRFTISRDNSKNTLYLQMNSLRAEDTAVYYCARGDYEVDYGMDVWGQGTTVTVASASTKGPSVFPLAPSSKSTSGGTAALGCLVKDYFPEPVTVSWNSGALTSGVHTFPAVLQSSGLYSLSSVVTVPSSSLGTQTYICNVNHKPSNTKVDKRV[human IgG1 Fc skipped]
light: AIQLTQSPSSLSASVGDRVTITCRASQGISNALAWYQQKPGKAPKLLIYDASSLESGVPSRFSGSGSGTDFTLTISSLQPEDFATYYCQQFNSYPWTFGQGTKVEIKRTVAAPSVFIFPPSDEQLKSGTASVVCLLNNFYPREAKVQWKVDNALQSGNSQESVTEQDSKDSTYSLSSTLTLSKADYEKHKVYACEVTHQGLSSPVTKSFNRGEC
With B1, the IC50 in the test with monocytes [1] (100 ng/mL hCSF-1, read-out: IC50, CSF-1 induction of monocyte to macrophage differentiation) came to 0.25 nM; with NKM-1 leukemia cells [4] (read-out: IC50 for NKM-1 growth), 0.076 nM; in the test on NKM-1 leukemia cells [4] (read-out: IC50 for NKM-1 growth, reported as), 0.07 nM; with monocytes [5] (100 ng/mL hIL-34, read-out: IC50, IL-34 induction of monocyte to macrophage differentiation) it was 0.3 nM; in the test with monocytes [6] (read-out: IC50 inhibiting 50% of monocyte growth, reported as), 0.1 nM; in the test with monocytes [6] (read-out: IC50 inhibiting 50% of monocyte growth) it was 0.14 nM. For the same molecule, the IC50 with monocytes [7] turned out to be 0.5 nM. The “concentration at which monocytes fail to differentiate into macrophages” value in the test with monocytes [1] (in the presence of CSF-1) and in the test on monocytes [5] (in the presence of IL-34) was at least 2 nM throughout. Also, the “Median survival” value was 55 days in the test with NKM-1 leukemia cells [2] (5 mg/kg twice weekly), 46 days with NKM-1 leukemia cells [2] (20 mg/kg twice weekly) and 46 days with NKM-1 leukemia cells [2] (60 mg/kg twice weekly). Also, in test [3], the “NKM-1 cells killed (ADCC)” value was 9%. In addition, the “Akt and MAPK phosphorylation” value with Akt and MAPK is given as “decreased phosphorylation levels”.
